Results are given in words; binding and its absence hold for the method and conditions named. For some of these results: In cells and extracts the contact can be indirect. Some results given as binding are weak or reduced against the parent protein; the word gives no strength. Tags and fused reporters may be left off the sequences shown.
T1: Flag-tagged HBoV1 NP1 (NP1^Flag) (human bocavirus 1 (HBoV1)) (UniProt Q3YPH5)
T1 sequence: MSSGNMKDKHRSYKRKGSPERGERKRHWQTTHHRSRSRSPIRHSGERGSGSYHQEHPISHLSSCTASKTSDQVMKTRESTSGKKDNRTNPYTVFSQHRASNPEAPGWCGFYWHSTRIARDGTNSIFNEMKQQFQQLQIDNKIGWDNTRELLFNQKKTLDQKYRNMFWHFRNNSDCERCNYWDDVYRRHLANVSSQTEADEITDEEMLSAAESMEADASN

Sequences of proteins named here, by UniProt entry; tags and fusion partners are left off. A change or cut given only in a name is not applied to a line headed by its entry.
UniProt P12956: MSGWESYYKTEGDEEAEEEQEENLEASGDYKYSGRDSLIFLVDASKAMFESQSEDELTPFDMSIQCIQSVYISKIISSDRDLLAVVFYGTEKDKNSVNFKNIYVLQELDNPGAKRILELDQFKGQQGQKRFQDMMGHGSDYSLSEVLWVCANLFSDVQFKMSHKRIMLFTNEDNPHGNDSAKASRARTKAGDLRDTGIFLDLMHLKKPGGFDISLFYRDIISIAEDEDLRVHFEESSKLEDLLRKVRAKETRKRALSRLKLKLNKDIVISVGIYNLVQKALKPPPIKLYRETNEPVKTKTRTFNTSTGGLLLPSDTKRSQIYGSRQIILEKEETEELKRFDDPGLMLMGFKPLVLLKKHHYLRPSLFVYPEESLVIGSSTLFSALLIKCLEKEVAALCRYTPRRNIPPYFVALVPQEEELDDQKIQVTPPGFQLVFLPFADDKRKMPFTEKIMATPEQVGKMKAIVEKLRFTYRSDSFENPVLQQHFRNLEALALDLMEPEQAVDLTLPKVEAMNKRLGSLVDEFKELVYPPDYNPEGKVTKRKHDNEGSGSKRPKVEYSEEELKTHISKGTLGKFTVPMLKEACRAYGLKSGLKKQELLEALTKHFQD
UniProt P27694: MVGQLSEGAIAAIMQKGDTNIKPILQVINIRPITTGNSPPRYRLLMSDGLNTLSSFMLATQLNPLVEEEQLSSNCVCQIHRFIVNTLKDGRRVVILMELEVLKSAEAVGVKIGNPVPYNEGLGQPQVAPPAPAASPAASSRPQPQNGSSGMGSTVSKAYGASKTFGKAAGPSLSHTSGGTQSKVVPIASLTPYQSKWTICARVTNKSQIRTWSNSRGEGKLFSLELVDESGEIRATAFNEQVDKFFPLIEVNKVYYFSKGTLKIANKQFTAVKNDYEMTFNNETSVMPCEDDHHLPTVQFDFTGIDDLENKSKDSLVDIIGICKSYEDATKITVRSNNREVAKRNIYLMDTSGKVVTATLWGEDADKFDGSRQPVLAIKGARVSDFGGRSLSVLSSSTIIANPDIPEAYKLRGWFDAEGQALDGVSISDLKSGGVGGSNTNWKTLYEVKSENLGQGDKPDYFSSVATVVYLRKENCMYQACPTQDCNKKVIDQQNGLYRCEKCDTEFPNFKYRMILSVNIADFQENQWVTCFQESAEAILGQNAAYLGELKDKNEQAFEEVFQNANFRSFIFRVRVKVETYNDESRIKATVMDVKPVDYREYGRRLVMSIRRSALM
UniProt P67809: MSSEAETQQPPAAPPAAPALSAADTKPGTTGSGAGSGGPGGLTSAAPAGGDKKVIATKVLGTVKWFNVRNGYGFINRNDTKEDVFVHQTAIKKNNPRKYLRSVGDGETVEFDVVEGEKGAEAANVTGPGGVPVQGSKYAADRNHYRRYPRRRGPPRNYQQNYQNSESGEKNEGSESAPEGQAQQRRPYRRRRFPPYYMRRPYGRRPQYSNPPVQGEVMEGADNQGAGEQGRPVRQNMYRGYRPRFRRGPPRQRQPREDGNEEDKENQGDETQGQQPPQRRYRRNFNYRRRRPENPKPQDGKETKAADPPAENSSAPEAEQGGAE
UniProt P15927: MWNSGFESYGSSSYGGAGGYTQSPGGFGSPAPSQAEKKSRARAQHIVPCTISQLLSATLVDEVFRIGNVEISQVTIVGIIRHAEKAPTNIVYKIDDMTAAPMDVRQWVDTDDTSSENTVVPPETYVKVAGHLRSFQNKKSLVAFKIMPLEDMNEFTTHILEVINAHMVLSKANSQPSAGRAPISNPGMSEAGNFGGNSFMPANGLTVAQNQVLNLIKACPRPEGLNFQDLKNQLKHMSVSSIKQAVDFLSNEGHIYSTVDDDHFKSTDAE
UniProt P13010: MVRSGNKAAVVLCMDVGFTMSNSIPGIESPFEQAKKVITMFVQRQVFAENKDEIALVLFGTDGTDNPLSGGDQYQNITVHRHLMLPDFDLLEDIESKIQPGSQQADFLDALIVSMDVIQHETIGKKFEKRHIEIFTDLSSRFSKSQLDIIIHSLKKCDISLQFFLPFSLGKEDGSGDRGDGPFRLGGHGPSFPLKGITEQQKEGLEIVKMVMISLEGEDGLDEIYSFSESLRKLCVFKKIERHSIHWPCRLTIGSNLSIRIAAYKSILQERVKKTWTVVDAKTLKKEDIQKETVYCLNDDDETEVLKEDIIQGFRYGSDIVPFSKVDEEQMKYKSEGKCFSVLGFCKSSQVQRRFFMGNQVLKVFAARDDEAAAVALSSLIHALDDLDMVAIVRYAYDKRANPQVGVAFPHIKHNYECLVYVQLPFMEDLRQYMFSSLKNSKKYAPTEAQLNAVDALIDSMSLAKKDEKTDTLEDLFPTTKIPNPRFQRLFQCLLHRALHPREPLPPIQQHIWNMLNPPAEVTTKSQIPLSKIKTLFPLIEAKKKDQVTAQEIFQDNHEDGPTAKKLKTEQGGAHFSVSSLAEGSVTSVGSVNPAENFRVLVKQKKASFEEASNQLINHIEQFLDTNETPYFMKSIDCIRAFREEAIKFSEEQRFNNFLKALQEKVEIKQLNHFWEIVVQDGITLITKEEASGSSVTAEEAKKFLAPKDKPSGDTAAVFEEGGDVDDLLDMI

T2: glutathione S-transferase (GST)-tagged HBoV1 NP1 (GST-NP1) (human bocavirus 1 (HBoV1)) (UniProt Q3YPH5)
T2 sequence: T1 sequence

T3: Strep tagged NP1 (NP1^Strep) (human bocavirus 1 (HBoV1)) (UniProt Q3YPH5)
T3 sequence: T1 sequence

B1: DExH-box helicase 30 (DHX30/DDX30) (protein, UniProt Q7L2E3 1-1194)
chain: MFSLDSFRKDRAQHRQRQCKLPPPRLPPMCVNPTPGGTISRASRDLLKEFPQPKNLLNSVIGRALGISHAKDKLVYVHTNGPKKKKVTLHIKWPKSVEVEGYGSKKIDAERQAAAAACQLFKGWGLLGPRNELFDAAKYRVLADRFGSPADSWWRPEPTMPPTSWRQLNPESIRPGGPGGLSRSLGREEEEDEEEELEEGTIDVTDFLSMTQQDSHAPLRDSRGSSFEMTDDDSAIRALTQFPLPKNLLAKVIQIATSSSTAKNLMQFHTVGTKTKLSTLTLLWPCPMTFVAKGRRKAEAENKAAALACKKLKSLGLVDRNNEPLTHAMYNLASLRELGETQRRPCTIQVPEPILRKIETFLNHYPVESSWIAPELRLQSDDILPLGKDSGPLSDPITGKPYVPLLEAEEVRLSQSLLELWRRRGPVWQEAPQLPVDPHRDTILNAIEQHPVVVISGDTGCGKTTRIPQLLLERYVTEGRGARCNVIITQPRRISAVSVAQRVSHELGPSLRRNVGFQVRLESKPPSRGGALLFCTVGILLRKLQSNPSLEGVSHVIVDEVHERDVNTDFLLILLKGLQRLNPALRLVLMSATGDNERFSRYFGGCPVIKVPGFMYPVKEHYLEDILAKLGKHQYLHRHRHHESEDECALDLDLVTDLVLHIDARGEPGGILCFLPGWQEIKGVQQRLQEALGMHESKYLILPVHSNIPMMDQKAIFQQPPVGVRKIVLATNIAETSITINDIVHVVDSGLHKEERYDLKTKVSCLETVWVSRANVIQRRGRAGRCQSGFAYHLFPRSRLEKMVPFQVPEILRTPLENLVLQAKIHMPEKTAVEFLSKAVDSPNIKAVDEAVILLQEIGVLDQREYLTTLGQRLAHISTDPRLAKAIVLAAIFRCLHPLLVVVSCLTRDPFSSSLQNRAEVDKVKALLSHDSGSDHLAFVRAVAGWEEVLRWQDRSSRENYLEENLLYAPSLRFIHGLIKQFSENIYEAFLVGKPSDCTLASAQCNEYSEEEELVKGVLMAGLYPNLIQVRQGKVTRQGKFKPNSVTYRTKSGNILLHKSTINREATRLRSRWLTYFMAVKSNGSVFVRDSSQVHPLAVLLLTDGDVHIRDDGRRATISLSDSDLLRLEGDSRTVRLLKELRRALGRMVERSLRSELAALPPSVQEEHGQLLALLAELLRGPCGSFDVRKTADD
B2: HBoV1 NS1-70^Flag-His (protein, UniProt D0EZM8-2 1-639)
chain: MAFNPPVIRAFSQPAFTYVFKFPYPQWKEKEWLLHALLAHGTEQSMIQLRNCAPHPDEDIIRDDLLISLEDRHFGAVLCKAVYMATTTLMSHKQRNMFPRCDIIVQSELGEKNLHCHIIVGGEGLSKRNAKSSCAQFYGLILAEIIQRCKSLLATRPFEPEEADIFHTLKKAEREAWGGVTGGNMQILQYRDRRGDLHAQTVDPLRFFKNYLLPKNRCISSYSKPDVCTSPDNWFILAEKTYSHTLINGLPLPEHYRKNYHATLDNEVIPGPQTMAYGGRGPWEHLPEVGDQRLAASSVSTTYKPNKKEKLMLNLLDKCKELNLLVYEDLVANCPELLLMLEGQPGGARLIEQVLGMHHINVCSNFTALTYLFHLHPVTSLDSDNKALQLLLIQGYNPLAVGHALCCVLNKQFGKQNTVCFYGPASTGKTNMAKAIVQGIRLYGCVNHLNKGFVFNDCRQRLVVWWEECLMHQDWVEPAKCILGGTECRIDVKHRDSVLLTQTPVIISTNHDIYAVVGGNSVSHVHAAPLKERVIQLNFMKQLPQTFGEITATEIAALLQWCFNEYDCTLTGFKQKWNLDKIPNSFPLGVLCPTHSQDFTLHENGYCTDCGGYLPHSADNSMYTDRASETSTGDITPSK

These molecules were tested against T1, Flag-tagged HBoV1 NP1 (NP1^Flag) (human bocavirus 1 (HBoV1)) (assay: co-IP; HEK293 transfected with pCI-NP1^Flag or pCI; lysate (50 mM Tris-HCl pH 8.0, 150 mM NaCl, 1% NP-40) treated with 250 units Benzonase nuclease; anti-Flag affinity resin, ~4 h, 4°C; Western blotting).

| Molecule | binding |
| --- | --- |
| ATP-dependent DNA helicase II 70 KDa (Ku70) (endogenous) (from UniProt P12956 1-609) | binds |
| RPA70 (endogenous) (from UniProt P27694 1-616) | binds |
| Y-box binding protein 1 (YBX1) (from UniProt P67809 1-324) | binds |
| B1 | binds |

Each molecule was assayed against T2, glutathione S-transferase (GST)-tagged HBoV1 NP1 (GST-NP1) (human bocavirus 1 (HBoV1)) (assay: pull-down; 4 μg GST-tagged bait on Glutathione agarose, 4 μg purified prey; 25 mM Tris pH 7.4, 150 mM NaCl, 1 mM EDTA, 1% NP-40, 4°C, 3 h; benzonase added to bait and prey; Western blotting with anti-His; both purified).

| Molecule | binding |
| --- | --- |
| Ku70-SAP^His (aa537-609) (from UniProt P12956 537-609) (domain or fragment) | no binding |
| Ku70-vWA^His (aa1-265) (from UniProt P12956 1-265) (domain or fragment) | no binding |
| MBP-Ku70-CTR^His (aa440-536) (from UniProt P12956 440-536) (domain or fragment) | no binding (tested: 4 μg bait, 4 μg prey) |
| RPA32^His (from UniProt P15927 1-270) | no binding (tested: 4 μg bait, 4 μg prey) |
| RPA70-A^His (aa181-300) (from UniProt P27694 181-300) (domain or fragment) | no binding (tested: 4 μg bait, 4 μg prey) |
| RPA70-B^His (aa301-422) (from UniProt P27694 301-422) (domain or fragment) | no binding (tested: 4 μg bait, 4 μg prey) |
| RPA70-C-ter^His (aa423-616) (from UniProt P27694 423-616) (domain or fragment) | no binding (tested: 4 μg bait, 4 μg prey) |
| RPA70-N-ter^His (aa1-180) (from UniProt P27694 1-180) (domain or fragment) | no binding (tested: 4 μg bait, 4 μg prey) |
| hexahistidine (His)-tagged Ku80 (Ku80^His) (from UniProt P13010 1-732) | no binding (tested: 4 μg bait, 4 μg prey) |

What follows are molecules tested against T2, glutathione S-transferase (GST)-tagged HBoV1 NP1 (GST-NP1) (human bocavirus 1 (HBoV1)) (assay: pull-down; both purified).

| Molecule | binding |
| --- | --- |
| His-tagged Ku70/80 heterodimer (Ku70/80^His heterodimer) (from UniProt P12956 1-609; P13010 1-732) (complex) | binds |

Each molecule was assayed against T3, Strep tagged NP1 (NP1^Strep) (human bocavirus 1 (HBoV1)) (assay: pull-down; both purified).

| Molecule | binding |
| --- | --- |
| His-tagged Ku70/80 heterodimer (Ku70/80^His heterodimer) (from UniProt P12956 1-609; P13010 1-732) (complex) | binds |

Target: T2, glutathione S-transferase (GST)-tagged HBoV1 NP1 (GST-NP1) (human bocavirus 1 (HBoV1))
Test: pull-down; 4 μg GST-tagged bait on Glutathione agarose, 4 μg purified prey; 25 mM Tris pH 7.4, 150 mM NaCl, 1 mM EDTA, 1% NP-40, 4°C, 3 h; benzonase added to bait and prey; Western blotting with anti-His; both purified
Remark: another data set of the same source

| Molecule | binding |
| --- | --- |
| B2 | no binding (tested: 4 μg bait, 4 μg prey) |
